Source: the supplement of paper PMC9151546
Most values come without repeats; read them as rough.

How the values were obtained:
CHO-K1 [1] = assay: micronucleus frequency (% of nucleated events); higher = more micronuclei (genotoxic)
CHO-K1 [2] = assay: relative survival (nuclei to bead ratio vs DMSO control) (% of vehicle control); higher = more surviving cells
Procedure: (§1)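 Flow-cytometric in vitro micronucleus assay (Litron MicroFlow) in CHO-K1 cells in 96-well plates, 19 concentrations (4.5-200 µM, n=1 per concentration). Without S9, cells were exposed for 24 h and sampled at 48 h. With Aroclor 1254-induced rat liver S9, cells were exposed for 3-4 h and sampled at 27-28 h. Read-outs are %MN and %hypodiploid nuclei relative to nucleated events, and relative survival as the nuclei-to-bead ratio versus the 1% DMSO vehicle control (x100).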

CHO-K1 [3] = assay: hypodiploid nuclei frequency (% of nucleated events); higher = more hypodiploid events (aneugenic)
Procedure: as §1
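Throughout, for hypodiploid nuclei frequency (% of nucleated events): hypodiploid nuclei gated on a flow cytometer with 488 nm excitation after SYTOX Green staining, cultures at 37 °C, positive controls vinblastine without S9 and cyclophosphamide with S9.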
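Throughout, for micronucleus frequency (% of nucleated events): cells lysed with nuclei stained by SYTOX Green, then micronucleus-gated events counted against nucleated events by flow cytometry with 488 nm excitation.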
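Throughout, for relative survival (nuclei to bead ratio vs DMSO control): Lysed-cell nuclei stained with SYTOX Green and counted against counting beads by flow cytometry at 488 nm excitation, with vinblastine (no S9) and cyclophosphamide (plus S9) as positive controls.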

Nc1ccc(Nc2ccccc2)cc1 [N-Phenyl-1,4-benzenediamine]
Settings	hypodiploid nuclei frequency, CHO-K1 [3] [%]	micronucleus frequency, CHO-K1 [1] [%]	relative survival, CHO-K1 [2]
concentration: 4.5 (µM), S9 metabolic activation: with S9, exposure time: 3-4 hours	0.26	1.44	72
concentration: 4.5 (µM), S9 metabolic activation: without S9, exposure time: 24 hours	3.1	2.3	79.7
concentration: 5.63 (µM), S9 metabolic activation: with S9, exposure time: 3-4 hours	0.36	1.68	68.4
concentration: 5.63 (µM), S9 metabolic activation: without S9, exposure time: 24 hours	2.08	2.8	68.3
concentration: 7.04 (µM), S9 metabolic activation: with S9, exposure time: 3-4 hours	0.32	1.52	89.5
concentration: 7.04 (µM), S9 metabolic activation: without S9, exposure time: 24 hours	4.68	4.1	74.4
concentration: 8.8 (µM), S9 metabolic activation: with S9, exposure time: 3-4 hours	0.3	1.68	84.7
concentration: 8.8 (µM), S9 metabolic activation: without S9, exposure time: 24 hours	2.32	3.48	82.1
concentration: 11 (µM), S9 metabolic activation: with S9, exposure time: 3-4 hours	0.48	2.02	71.9
concentration: 11 (µM), S9 metabolic activation: without S9, exposure time: 24 hours	5.14	4.18	73.6
concentration: 13.7 (µM), S9 metabolic activation: with S9, exposure time: 3-4 hours	0.26	2.6	85.1
concentration: 13.7 (µM), S9 metabolic activation: without S9, exposure time: 24 hours	5.18	4	67.2
concentration: 17.2 (µM), S9 metabolic activation: with S9, exposure time: 3-4 hours	0.3	2.62	84.7
concentration: 17.2 (µM), S9 metabolic activation: without S9, exposure time: 24 hours	4.68	3.48	58.2
concentration: 21.5 (µM), S9 metabolic activation: with S9, exposure time: 3-4 hours	0.44	2.02	102
concentration: 21.5 (µM), S9 metabolic activation: without S9, exposure time: 24 hours	4.8	4.06	78.3
concentration: 26.8 (µM), S9 metabolic activation: with S9, exposure time: 3-4 hours	0.26	1.36	95.4
concentration: 26.8 (µM), S9 metabolic activation: without S9, exposure time: 24 hours	13.1	2.8	41.4
concentration: 33.6 (µM), S9 metabolic activation: with S9, exposure time: 3-4 hours	0.24	1.28	91.1
concentration: 33.6 (µM), S9 metabolic activation: without S9, exposure time: 24 hours	10.7	3.34	42.1
concentration: 41.9 (µM), S9 metabolic activation: with S9, exposure time: 3-4 hours	0.2	1.38	92
concentration: 41.9 (µM), S9 metabolic activation: without S9, exposure time: 24 hours	–	–	30.8
concentration: 52.4 (µM), S9 metabolic activation: with S9, exposure time: 3-4 hours	0.28	1.5	91.3
concentration: 52.4 (µM), S9 metabolic activation: without S9, exposure time: 24 hours	–	–	40
concentration: 65.5 (µM), S9 metabolic activation: with S9, exposure time: 3-4 hours	0.3	2.04	93.2
concentration: 65.5 (µM), S9 metabolic activation: without S9, exposure time: 24 hours	4.92	1.48	42.7
concentration: 81.9 (µM), S9 metabolic activation: with S9, exposure time: 3-4 hours	0.28	2	97
concentration: 81.9 (µM), S9 metabolic activation: without S9, exposure time: 24 hours	–	–	29
concentration: 102 (µM), S9 metabolic activation: with S9, exposure time: 3-4 hours	0.32	2.62	89.1
concentration: 102 (µM), S9 metabolic activation: without S9, exposure time: 24 hours	–	–	16.1
concentration: 128 (µM), S9 metabolic activation: with S9, exposure time: 3-4 hours	0.26	2.98	88.4
concentration: 128 (µM), S9 metabolic activation: without S9, exposure time: 24 hours	–	–	5.06
concentration: 160 (µM), S9 metabolic activation: with S9, exposure time: 3-4 hours	0.16	3.04	67.6
concentration: 160 (µM), S9 metabolic activation: without S9, exposure time: 24 hours	–	–	0.5
concentration: 200 (µM), S9 metabolic activation: with S9, exposure time: 3-4 hours	0.34	2.84	63
concentration: 200 (µM), S9 metabolic activation: without S9, exposure time: 24 hours	–	–	0.01

ClC1=C(Cl)C2(Cl)C3C4C=CC(C4)C3C1(Cl)C2(Cl)Cl (centres undefined) [Aldrin]
Settings	hypodiploid nuclei frequency, CHO-K1 [3] [%]	micronucleus frequency, CHO-K1 [1] [%]	relative survival, CHO-K1 [2]
concentration: 4.5 (µM), S9 metabolic activation: with S9, exposure time: 3-4 hours	0.18	1.66	132
concentration: 4.5 (µM), S9 metabolic activation: without S9, exposure time: 24 hours	0.7	1.24	99.7
concentration: 5.63 (µM), S9 metabolic activation: with S9, exposure time: 3-4 hours	0.14	1.4	79.6
concentration: 5.63 (µM), S9 metabolic activation: without S9, exposure time: 24 hours	0.74	1.7	108
concentration: 7.04 (µM), S9 metabolic activation: with S9, exposure time: 3-4 hours	0.12	1.24	102
concentration: 7.04 (µM), S9 metabolic activation: without S9, exposure time: 24 hours	0.66	1.38	108
concentration: 8.8 (µM), S9 metabolic activation: with S9, exposure time: 3-4 hours	0.22	1.26	99.7
concentration: 8.8 (µM), S9 metabolic activation: without S9, exposure time: 24 hours	0.5	1.74	89.8
concentration: 11 (µM), S9 metabolic activation: with S9, exposure time: 3-4 hours	0.3	1.14	98.6
concentration: 11 (µM), S9 metabolic activation: without S9, exposure time: 24 hours	0.48	2.08	112
concentration: 13.7 (µM), S9 metabolic activation: with S9, exposure time: 3-4 hours	0.22	0.96	105
concentration: 13.7 (µM), S9 metabolic activation: without S9, exposure time: 24 hours	0.94	1.58	85.2
concentration: 17.2 (µM), S9 metabolic activation: with S9, exposure time: 3-4 hours	0.26	0.96	104
concentration: 17.2 (µM), S9 metabolic activation: without S9, exposure time: 24 hours	0.68	1.64	118
concentration: 21.5 (µM), S9 metabolic activation: with S9, exposure time: 3-4 hours	0.2	1.08	111
concentration: 21.5 (µM), S9 metabolic activation: without S9, exposure time: 24 hours	0.56	1.84	86.3
concentration: 26.8 (µM), S9 metabolic activation: with S9, exposure time: 3-4 hours	0.18	0.82	123
concentration: 26.8 (µM), S9 metabolic activation: without S9, exposure time: 24 hours	0.48	1.6	123
concentration: 33.6 (µM), S9 metabolic activation: with S9, exposure time: 3-4 hours	0.3	1.36	149
concentration: 33.6 (µM), S9 metabolic activation: without S9, exposure time: 24 hours	0.68	2.12	163
concentration: 41.9 (µM), S9 metabolic activation: with S9, exposure time: 3-4 hours	0.24	1.68	112
concentration: 41.9 (µM), S9 metabolic activation: without S9, exposure time: 24 hours	0.6	1.8	122
concentration: 52.4 (µM), S9 metabolic activation: with S9, exposure time: 3-4 hours	0.2	1.52	86.2
concentration: 52.4 (µM), S9 metabolic activation: without S9, exposure time: 24 hours	0.66	2.1	109
concentration: 65.5 (µM), S9 metabolic activation: with S9, exposure time: 3-4 hours	0.25	1.2	74.7
concentration: 65.5 (µM), S9 metabolic activation: without S9, exposure time: 24 hours	0.9	1.96	91.3
concentration: 81.9 (µM), S9 metabolic activation: with S9, exposure time: 3-4 hours	0.15	0.76	63.8
concentration: 81.9 (µM), S9 metabolic activation: without S9, exposure time: 24 hours	0.82	2.42	75.9
concentration: 102 (µM), S9 metabolic activation: with S9, exposure time: 3-4 hours	0.14	1.29	57.6
concentration: 102 (µM), S9 metabolic activation: without S9, exposure time: 24 hours	0.88	2.22	54.3
concentration: 128 (µM), S9 metabolic activation: with S9, exposure time: 3-4 hours	0.24	0.8	62.5
concentration: 128 (µM), S9 metabolic activation: without S9, exposure time: 24 hours	0.9	1.8	46
concentration: 160 (µM), S9 metabolic activation: with S9, exposure time: 3-4 hours	0.05	3.77	51
concentration: 160 (µM), S9 metabolic activation: without S9, exposure time: 24 hours	–	–	12.6
concentration: 200 (µM), S9 metabolic activation: with S9, exposure time: 3-4 hours	–	–	9.88
concentration: 200 (µM), S9 metabolic activation: without S9, exposure time: 24 hours	–	–	0.54

ClC1=C(Cl)[C@]2(Cl)[C@@H]3[C@@H]4C[C@@H]([C@H]5O[C@@H]45)[C@@H]3[C@@]1(Cl)C2(Cl)Cl [Dieldrin]
Settings	hypodiploid nuclei frequency, CHO-K1 [3] [%]	micronucleus frequency, CHO-K1 [1] [%]	relative survival, CHO-K1 [2]
concentration: 4.53 (µM), S9 metabolic activation: with S9, exposure time: 3-4 hours	0.4	1.96	81.9
concentration: 4.53 (µM), S9 metabolic activation: without S9, exposure time: 24 hours	0.64	1.04	119
concentration: 5.66 (µM), S9 metabolic activation: with S9, exposure time: 3-4 hours	0.4	2.06	101
concentration: 5.66 (µM), S9 metabolic activation: without S9, exposure time: 24 hours	0.6	1.02	96.7
concentration: 7.07 (µM), S9 metabolic activation: with S9, exposure time: 3-4 hours	0.3	1.54	84.5
concentration: 7.07 (µM), S9 metabolic activation: without S9, exposure time: 24 hours	0.7	1.72	120
concentration: 8.84 (µM), S9 metabolic activation: with S9, exposure time: 3-4 hours	0.32	1.86	81.9
concentration: 8.84 (µM), S9 metabolic activation: without S9, exposure time: 24 hours	0.7	1.82	98.1
concentration: 11.1 (µM), S9 metabolic activation: with S9, exposure time: 3-4 hours	0.28	1.28	73
concentration: 11.1 (µM), S9 metabolic activation: without S9, exposure time: 24 hours	0.88	1.8	113
concentration: 13.8 (µM), S9 metabolic activation: with S9, exposure time: 3-4 hours	0.24	1.52	84
concentration: 13.8 (µM), S9 metabolic activation: without S9, exposure time: 24 hours	3.1	2.54	101
concentration: 17.3 (µM), S9 metabolic activation: with S9, exposure time: 3-4 hours	0.36	1.72	84
concentration: 17.3 (µM), S9 metabolic activation: without S9, exposure time: 24 hours	0.9	1.84	108
concentration: 21.6 (µM), S9 metabolic activation: with S9, exposure time: 3-4 hours	0.46	2.38	88.4
concentration: 21.6 (µM), S9 metabolic activation: without S9, exposure time: 24 hours	0.94	3.22	104
concentration: 27 (µM), S9 metabolic activation: with S9, exposure time: 3-4 hours	0.26	1.82	105
concentration: 27 (µM), S9 metabolic activation: without S9, exposure time: 24 hours	0.96	1.24	70.4
concentration: 33.7 (µM), S9 metabolic activation: with S9, exposure time: 3-4 hours	0.24	1.96	95.7
concentration: 33.7 (µM), S9 metabolic activation: without S9, exposure time: 24 hours	1.14	1.84	73.9
concentration: 42.2 (µM), S9 metabolic activation: with S9, exposure time: 3-4 hours	0.26	1.66	79.6
concentration: 42.2 (µM), S9 metabolic activation: without S9, exposure time: 24 hours	0.98	1.26	79.2
concentration: 52.7 (µM), S9 metabolic activation: with S9, exposure time: 3-4 hours	0.28	2.16	80.5
concentration: 52.7 (µM), S9 metabolic activation: without S9, exposure time: 24 hours	1.1	2.28	56
concentration: 65.9 (µM), S9 metabolic activation: with S9, exposure time: 3-4 hours	0.34	2.14	86.8
concentration: 65.9 (µM), S9 metabolic activation: without S9, exposure time: 24 hours	1.24	2.46	66.5
concentration: 82.3 (µM), S9 metabolic activation: with S9, exposure time: 3-4 hours	0.34	2.02	75.5
concentration: 82.3 (µM), S9 metabolic activation: without S9, exposure time: 24 hours	1.6	1.86	66.4
concentration: 103 (µM), S9 metabolic activation: with S9, exposure time: 3-4 hours	0.32	2.58	82.3
concentration: 103 (µM), S9 metabolic activation: without S9, exposure time: 24 hours	1.6	2.78	68.1
concentration: 129 (µM), S9 metabolic activation: with S9, exposure time: 3-4 hours	0.28	1.78	88.4
concentration: 129 (µM), S9 metabolic activation: without S9, exposure time: 24 hours	2.7	2.14	62
concentration: 161 (µM), S9 metabolic activation: with S9, exposure time: 3-4 hours	0.28	1.74	114
concentration: 161 (µM), S9 metabolic activation: without S9, exposure time: 24 hours	2.34	3.3	48.4
concentration: 201 (µM), S9 metabolic activation: with S9, exposure time: 3-4 hours	0.2	1.7	107
concentration: 201 (µM), S9 metabolic activation: without S9, exposure time: 24 hours	2.7	3.6	46.9
